# Reference: the supplement of paper PMC3334620
# In all, about 33,000 sequences were measured (“E-score (-0.5 to 0.5)”: median about -0.035, highest 2% from about 0.35 on). The list shows a part of the results.
# Target: T1, Pdr3 (UniProt P33200)
# T1 sequence: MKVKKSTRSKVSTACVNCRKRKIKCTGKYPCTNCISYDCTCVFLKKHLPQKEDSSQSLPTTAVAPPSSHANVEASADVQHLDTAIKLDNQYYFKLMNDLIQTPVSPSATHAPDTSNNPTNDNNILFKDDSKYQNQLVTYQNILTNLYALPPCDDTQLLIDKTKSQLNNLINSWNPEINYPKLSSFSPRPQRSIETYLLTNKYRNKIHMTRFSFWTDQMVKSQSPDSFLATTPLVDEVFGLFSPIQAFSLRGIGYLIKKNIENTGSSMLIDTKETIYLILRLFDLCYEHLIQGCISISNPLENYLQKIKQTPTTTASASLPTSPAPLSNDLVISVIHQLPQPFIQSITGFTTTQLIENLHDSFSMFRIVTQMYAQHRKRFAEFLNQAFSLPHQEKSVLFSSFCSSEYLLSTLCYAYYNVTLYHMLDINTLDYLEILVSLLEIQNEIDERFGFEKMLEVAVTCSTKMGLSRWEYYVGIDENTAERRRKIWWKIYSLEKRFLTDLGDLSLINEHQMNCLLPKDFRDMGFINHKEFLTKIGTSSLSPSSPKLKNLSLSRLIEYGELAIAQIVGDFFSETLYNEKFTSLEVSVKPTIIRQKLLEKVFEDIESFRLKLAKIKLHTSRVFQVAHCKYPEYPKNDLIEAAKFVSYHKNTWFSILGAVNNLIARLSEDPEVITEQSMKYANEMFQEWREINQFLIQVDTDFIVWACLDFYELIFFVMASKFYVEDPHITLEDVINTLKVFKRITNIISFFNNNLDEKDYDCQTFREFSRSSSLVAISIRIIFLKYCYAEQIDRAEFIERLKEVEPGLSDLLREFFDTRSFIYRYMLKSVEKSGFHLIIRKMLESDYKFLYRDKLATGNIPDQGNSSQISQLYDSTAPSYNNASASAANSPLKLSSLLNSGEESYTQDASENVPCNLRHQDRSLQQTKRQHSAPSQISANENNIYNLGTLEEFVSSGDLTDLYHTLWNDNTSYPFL
# Assay: PBM E-score (8-mer binding enrichment) (E-score (-0.5 to 0.5)); higher = stronger / more preferred TF binding; most listed sequences are background and not binding sites
# Settings: protein concentration: 200 nM; construct: GST-full length
# Outline: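 Each ungapped eight-base word and its reverse complement, pooled, received an E-score from the Universal PBM Analysis Suite. Underlying scans, normalised with masliner, recorded fluorescent anti-GST bound to GST-tagged yeast transcription factors. These were applied at about 100-200 nM to universal all-10-mer Agilent arrays double-stranded by primer extension.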
row,Sequence,PBM E-score
1,CGCTTCAC,-0.103
2,GGGGAACA,-0.00834
3,CACTTGCA,-0.134
4,CAAGGCGA,-0.174
5,GGTGAGAA,0.0559
6,ACTCGATC,0.0638
7,ACTGTGAA,-0.099
8,ATGCTATC,-0.0219
9,CTAAGTGA,-0.0814
10,CAGTTACG,-0.17
11,TCCAGAAA,-0.11
12,ACATTGAG,-0.113
13,GACTTAGA,-0.333
14,TTACATAA,-0.103
15,CACCCTTC,-0.0444
16,CAACAAAA,-0.155
17,CTCCGGAG,0.476
18,ACTCTATG,0.0265
19,ACGGTCAG,-0.362
20,AGGAAACG,-0.0809
21,CCCGTAAC,0.137
22,TGAGGCAA,-0.0239
23,ACCGACGT,0.065
24,ATCTACTG,-0.0583
25,GCACGTTA,-0.0451

row,Sequence,PBM E-score
1,CATGTGGG,-0.0907
2,CACAGTGA,-0.174
3,AACGGTTC,0.0452
4,AAAGACAA,0.0119
5,ACCTGTTC,0.109
6,CCGGCAAA,0.334
7,ACACCATC,-0.137
8,AGCACAAT,-0.0957
9,GTAATAAA,-0.0477
10,GTCAGTTA,-0.333
11,CATGTTTA,-0.0824
12,CCCAGGCG,0.0338
13,CTCTTCTC,-0.18
14,CATTCACA,-0.136
15,ACTTGCTC,-0.167
16,ACCATAAT,-0.0319
17,CGTCGTAA,-0.0777
18,CACAGATC,-0.0459
19,AATGGGTC,0.00661
20,CCGATCCC,0.175
21,GCGCCATA,0.00087
22,AGTTTGCA,-0.124
23,AAATGCAG,-0.19
24,TCTTGCCA,-0.0983
25,TCAGGGAA,-0.0594

row,Sequence,PBM E-score
1,CAACTTCC,0.225
2,ACCTAGTG,0.0344
3,AGAGACTA,-0.149
4,CACAGCTC,-0.145
5,AAGATTGG,0.014
6,GGCACGAC,-0.0454
7,AAATTCTG,-0.00185
8,GCAGGACC,-0.106
9,CCACTATA,-0.0588
10,GTTTCCGA,0.429
11,GCCGGAGC,0.236
12,CCCATTCG,-0.0187
13,GAAATGAC,0.016
14,AATTTTGC,-0.0148
15,AAGCCCTG,-0.149
16,AATATGCG,0.0521
17,CCTATTAG,-0.155
18,CCCCATAA,-0.0128
19,CAGCATCG,-0.131
20,AGGGATTC,-0.0434
21,CGCTGGCA,-0.0515
22,CCATATGC,0.00589
23,GATCTATA,-0.013
24,CTGGCCAC,-0.0797
25,ACCTGTCC,-0.0778

row,Sequence,PBM E-score
1,CAAACCCG,0.116
2,AGTTAGCC,-0.0494
3,GGAACTGA,0.303
4,ACGGATAG,0.216
5,ACGGCCGA,0.293
6,CAGCGTCG,0.0355
7,ATGTAAGG,-0.098
8,CCAGAGCC,-0.0854
9,CGCTTCTC,0.0912
10,GACTAATA,-0.0553
11,AGAATGCC,-0.0948
12,TAGAAATA,-0.0487
13,AGTGAACA,-0.107
14,TGGTCGAA,-0.246
15,GATTTGTA,0.0487
16,CGCTTTAG,-0.0573
17,GTTGTTGA,-0.0135
18,AACTCGAA,-0.0881
19,AGCTCATC,0.063
20,GACGGGCA,0.103
21,CGCAGTAC,-0.151
22,TCGCCTAA,-0.0457
23,CCTAACAG,-0.0931
24,ACGTTATG,-0.0542
25,CATGGCTA,-0.115

row,Sequence,PBM E-score
1,GCTTATTA,-0.127
2,CTAGATCA,-0.255
3,ACCGTGAG,-0.177
4,TTAAGGAA,0.00789
5,ACACGAAG,0.0513
6,AGGAAAGG,-0.311
7,CGTTCAAC,0.082
8,CTTGCTGC,-0.269
9,GATGCAAC,-0.0567
10,ATACGAGG,-0.0563
11,AGCCGCGA,0.187
12,GGACGATA,0.0265
13,CGTCGCGC,0.131
14,ACTCGCCG,0.179
15,CATCCCGC,0.315
16,GTACACCA,-0.224
17,CAGACTCA,-0.133
18,GGACAGAA,0.112
19,GATTCCGA,0.454
20,AAACTAGT,0.0203
21,ATGAGCGC,0.0358
22,AAAGATTA,0.0181
23,CGCTCTTC,-0.0425
24,AAGCTCAC,-0.041
25,AGATGGCT,-0.182

row,Sequence,PBM E-score
1,CCCCTCGG,0.164
2,ACCACGAC,-0.0488
3,GCTTGCGA,0.00635
4,ATTCATTG,-0.0508
5,CTGATCCC,0.0105
6,CTACATAG,-0.115
7,GACCCGCC,0.22
8,ATAAGTGA,-0.0759
9,AGCTGCCC,0.257
10,AGCGTAGA,-0.0782
11,AATCAGGA,-0.0567
12,GCCAATAC,0.0182
13,ATCACATG,-0.0748
14,ACAACGGA,0.375
15,CCCCCTTC,-0.302
16,CAACATTC,-0.0388
17,TGCCACAA,0.0308
18,CGTTACGC,-0.1
19,CTAAAAGC,-0.109
20,AAATGTTC,-0.0576
21,CTTTGAGA,-0.0374
22,ATTCCGCA,0.379
23,AACCCATG,-0.0258
24,AAGAGCAT,-0.0207
25,ACATGGTG,-0.19

row,Sequence,PBM E-score
1,ACGGGACC,0.241
2,CTCGAGGA,-0.0629
3,ATGGCAAG,0.0377
4,AGTATCAG,-0.102
5,AGCGCTTC,0.0822
6,CAAAATGG,0.112
7,CCCGAACG,0.186
8,TAACGGAA,0.453
9,CACTTGGG,-0.108
10,ACCCGGGT,0.446
11,CACATAGA,-0.167
12,ACAGATCA,0.0817
13,GGCGTGGA,-0.0741
14,CACTCTCA,-0.298
15,GAAATTAA,0.1
16,CCTTACGA,-0.14
17,ATCTCTAA,0.0104
18,TCATAACA,-0.0698
19,ATTTATCC,0.235
20,TAAAATTA,0.025
21,AGAACCCG,0.111
22,CAAGCAGG,-0.0877
